Measured values as given in PubChem BioAssay AID1963576 (National Center for Advancing Translational Sciences (NCATS), 2024).
Hit rate of the full screen: of about 46,000 compounds, about 60 (0.1%) were called active. About 3% were inconclusive and are not listed. Calls come from the whole dose curve; as a rule, active = well fitted inhibition curve with a large enough effect; inconclusive = small, poorly fitted or top-dose-only effect; inactive = no such curve, though single readings can be large or run the other way. Some of the results follow.

Assay: Primary qHTS assay for Inhibitors of ovarian cancer metastasis using an organotypic tumor microenvironment (TME) model.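 For activity change, negative = inhibition: plate controls were DMSO wells for no effect and tomatine positive control wells for full effect.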 Note: nearly all actives have a fitted effect of over 65% in size.
Conditions: SKOV3ip1-GFP adhesion/invasion on 3D omental model, fluorescence; series mostly up to 45.8 µM; activity change, negative = inhibition: at the top concentration
In short: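 A 3D layer of primary human omental fibroblasts, mesothelial cells, fibronectin and collagen I, grown 48 hr, received SKOV3ip1-GFP cells in serum-free medium plus compounds at 0.36-46 umol/L. After 2 hr RT and 16 hr 37 C, fixed adherent GFP cells were counted; normalized to DMSO and tomatine.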

Compound	activity change, negative = inhibition	outcome
COc1ccc(S(=O)(=O)c2cn(Cc3ccccc3)c3ccc(OC)cc3c2=O)cc1	inactive: -3.43%	
Cc1cccc(N2CCN(c3c4c(nc5nncn35)CCC4)CC2)c1C		inactive
C=Cc1ccc(Cn2c(=O)cc(C)c3c(C)nn(C)c32)cc1	inactive: 3.75%	
CCOC(=O)c1cc(-c2ccccc2)n(CCCC(=O)Nc2cc(C)ccc2OC)c1C	inactive: 5.22%	
Cc1cccc(C(=O)Nc2ccc(N3CCN(c4ccc(F)cc4)CC3)c(C(=O)O)c2)c1	inactive: -23.7%	
COc1ccccc1Cc1nc2ccccc2nc1SCC(=O)N1CCC(C)CC1	inactive: 5.05%	
CC(C)CCN(Cc1ccco1)C(=O)Cn1ncc2c([nH]c3ccccc32)c1=O	inactive: -1.04%	
COc1ccccc1NC(=O)c1cc(C2CC2)nc2c1c(C)nn2-c1ccc(C)cc1	inactive: -7.9%	
O=c1c(N2CCc3ccccc3C2)csc2ccc(Br)cc12	inactive: 2.6%	
CCOc1ccc(C(=O)NCc2ccc3c(c2)CCN3C(=O)c2ccc(C)cc2)cc1OCC		inactive
O=c1c(S(=O)(=O)c2ccc(Cl)cc2)cn(Cc2ccc(F)cc2)c2ccc(F)cc12	inactive: -0.786%	
COc1ccc(Nc2cc(C(=O)NCc3ccccc3)c3ccccc3n2)cc1OC	inactive: -6.37%	
CN1C(=O)c2[nH]nc(-c3ccc(F)cc3)c2C1c1ccccn1 (stereo unspecified)	inactive: 6.47%	
COc1ccc(S(=O)(=O)c2cn(Cc3ccccc3)c3cc(F)c(F)cc3c2=O)cc1	inactive: -3.33%	
COc1ccc(OC)c(NC(=O)CCc2nc(-c3ccc(C)cc3)no2)c1	inactive: 29.3%	
Cc1c(C(=O)N2CCC(C)CC2)c(S(=O)(=O)N2CCN(c3cccc(Cl)c3)CC2)c(C)n1C	inactive: 12.5%	
Cc1ccc2nc(SCC(=O)Nc3ccc(C#N)cc3)[nH]c2c1	inactive: 9.09%	
Cc1ccn2c(Nc3ccc4c(c3)OCCO4)c(-c3ccc(C)s3)nc2c1	inactive: -3.46%	
CC(C)c1ccc(NC(=O)Cn2nnc(C(=O)NCc3cccs3)c2N)cc1	inactive: 24.4%	
CCCCn1c(SCC(=O)Nc2ccc(F)cc2)nc2c(sc3ccccc32)c1=O	inactive: -14.1%	
Fc1ccc(Nc2nc(Nc3ccc(F)cc3)nc(N3CCOCC3)n2)cc1	inactive: 15.4%	
Cc1ccc(N(CC(C)C)S(=O)(=O)c2nnc(NC(=O)c3cccs3)s2)cc1		inactive
COc1ccc(C(=O)NCC(c2ccc3c(c2)OCO3)N2CCN(c3ccc(F)cc3)CC2)cc1 (stereo unspecified)	inactive: -16.4%	
COc1ccc(NC(=O)C(=O)NCC2(c3ccccc3)CCCC2)c(OC)c1	inactive: -11.5%	

Compound	activity change, negative = inhibition	outcome
CCOc1ccc(-c2cc(C(=O)N3CCN(c4cccc(C(F)(F)F)c4)CC3)c3ccccc3n2)cc1	inactive: -5.47%	
O=C(CSc1nnc(-c2ccc(Br)cc2)n1-c1ccccc1)c1ccccc1	inactive: -3.43%	
CCOc1ccccc1N(CC(=O)Nc1ccc(OC)c(Cl)c1)S(=O)(=O)c1ccccc1	inactive: 25.9%	
CNC(=O)CSc1nnc(NC(=O)Nc2ccccc2)s1		inactive
Cc1ccc2oc3c(c(=O)c2c1)C(c1ccc(OCC(N)=O)cc1)N(Cc1ccc2c(c1)OCO2)C3=O (stereo unspecified)	inactive: -4.55%	
Cc1cccc(Oc2coc3cc(OCC(=O)NC4CCCCC4)ccc3c2=O)c1		inactive
COc1ccc(-c2cn3nc(N4CCC(C(=O)Nc5ccc(C)cc5)CC4)sc3n2)cc1	inactive: -4.42%	
CC1CCCCN1C(=O)CSc1nnc(-c2ccccc2Cl)o1 (stereo unspecified)	inactive: 0.122%	
CCOc1ccc(N(CC)S(=O)(=O)N2CCCC(C(=O)NCCc3ccccc3OC)C2)cc1 (stereo unspecified)	inactive: -3.65%	
COc1ccccc1CNC(=O)Cn1c(=O)ccc2cc(S(=O)(=O)N3CCCC3)ccc21	inactive: -7.53%	
COc1ccc(CNC(=O)CN2C(=O)COc3ccc(S(=O)(=O)N4CCOCC4)cc32)cc1	inactive: -6.24%	
CCOc1ccc(/C=C/c2nc(C#N)c(N3CCN(c4ccccc4)CC3)o2)cc1	inactive: -20.1%	
CCc1ccccc1NC(=O)c1cc(-c2ccc3c(c2)OCO3)on1	inactive: -7.79%	
CCOCN(C(=O)Cn1cnc2cc(C)c(C)cc21)c1c(C)cccc1CC		inactive
COc1ccc(Br)cc1CNC(=O)C1COc2ccccc2C1 (stereo unspecified)	inactive: -2.3%	
Cc1ccc2oc(-c3cc(NC(=O)c4cccs4)cc(C)c3O)nc2c1	inactive: 10.2%	
O=C(Nc1ccc(C(=O)N2CCN(c3ccc(Cl)cc3)CC2)cc1)c1nsc2ccccc12	inactive: 3.13%	
O=c1c(-c2ccc(O)cc2)coc2cc(O)ccc12	inactive: 3.34%	
Cc1ccc(-c2nnc(Nc3cccc(C(F)(F)F)c3)c3ccccc23)cc1S(=O)(=O)N1CCOCC1	inactive: -12.2%	
CC(C)(C)c1ccc(-c2noc(CCC(=O)Nc3cccc(Cl)c3)n2)cc1	inactive: 1.66%	
O=C(O)CCCCC(CCSCc1ccccc1)SCc1ccccc1 (stereo unspecified)	inactive: 10.4%	
CCOC(=O)N1CCN(C(=O)CN(c2cc(C)ccc2OC)S(=O)(=O)c2ccc(C)cc2)CC1	inactive: 19.5%	
Cc1ccc(Cl)cc1N1CCN(c2ncnc3onc(-c4ccc(F)cc4)c23)CC1	inactive: 0.319%	
Cc1ccc(Cn2c(C)c(CNC(C)c3ccccc3)c(C(=O)O)c2C)cc1 (stereo unspecified)	inactive: 10.1%	

Compound	activity change, negative = inhibition	outcome
Cc1ccc(-n2c(SCC(N)=O)nc3c([nH]c4ccccc43)c2=O)cc1	inactive: -6.45%	
O=C(c1ccc(CS(=O)(=O)c2c(Cl)cccc2Cl)o1)N1CCN(c2ccccc2)CC1	inactive: -2.72%	
COc1nc(-c2ccc(C)cc2)ccc1-c1noc(-c2ccc(C(C)(C)C)cc2)n1	inactive: 4.36%	
COc1ccccc1N1CCN(c2cc(C)nc3nc(-c4ccc(Cl)cc4)nn23)CC1	inactive: 32.8%	
Cc1ccc(NC(=O)c2cc(S(=O)(=O)N3CCCC3)c[nH]2)c(C)c1	inactive: -1.78%	
Cc1cccc(N2CCN(C(=O)c3ccc4c(c3)c(C)c(C)n4C)CC2C)c1 (stereo unspecified)		inactive
COc1ccc(OC)c(S(=O)(=O)NCCc2csc3nc(-c4ccccc4)nn23)c1	inactive: 2.4%	
CC1CCN(S(=O)(=O)c2nnc(NC(=O)c3cccc(F)c3)s2)CC1	inactive: 3.5%	
COC(=O)c1sc2cccc(F)c2c1S(=O)(=O)N1CCN(c2ccc(C)cc2C)CC1	inactive: 3.62%	
CCOc1ccccc1CNC(=O)C1CCCN(S(=O)(=O)c2ccc3c(ccn3C)c2)C1 (stereo unspecified)	inactive: -6.66%	
CCc1ccc(-n2nc(C)c3c(C(=O)Nc4cc(C)ccc4C)cc(C)nc32)cc1	inactive: 8.4%	
Cc1c(C(=O)N(Cc2ccc(N(C)C)cc2)CC2CCCO2)oc2ccc(Br)cc12 (stereo unspecified)	inactive: -9.27%	
Cc1ccc(N2CCN(c3nc4c(S(=O)(=O)c5ccc(C)c(C)c5)nnn4c4ccccc34)CC2)c(C)c1	inactive: -4.09%	
CCc1cccc(C)c1NC(=O)CN(C)S(=O)(=O)c1cccc2nsnc12	inactive: -6.57%	
CCN1CCN(c2cc(C)c3cc(NC(=O)c4ccccc4F)ccc3n2)CC1	inactive: -14.8%	
CCOC(=O)c1c(NC(=O)COc2ccc(Cl)cc2C)sc(C(C)=O)c1C	inactive: -1.73%	
CC(=O)N1CCc2cc(Br)cc(S(=O)(=O)CCC(=O)Nc3ccc(C)cc3Cl)c21		inactive
CCOc1ccc2oc(=O)cc(CN3CCN(c4ccc(Cl)cc4)CC3)c2c1		inactive
CCc1c(C)c2ccc(O)c(CN3CCN(c4ccccc4)CC3)c2oc1=O	inactive: -2.1%	
COc1ccc(C)cc1NC(=O)N1CCC(CN2CCC(C)CC2)CC1	inactive: 10.4%	
Cc1ccc(S(=O)(=O)c2cn(C)c3cc(N4CCCCC4)c(F)cc3c2=O)cc1	inactive: 9.71%	
CCN(CC)S(=O)(=O)c1ccc2oc(C(=O)NCc3ccccc3OC)c(C)c2c1	inactive: -18.1%	
CCOc1ccc(N(CC)S(=O)(=O)N2CCCC(C(=O)NCCc3ccc(OC)cc3)C2)cc1 (stereo unspecified)	inactive: -5.81%	
Cc1ccc(S(=O)(=O)NCC2CCC(C(=O)NCCc3ccc(Cl)cc3)CC2)cc1 (stereo unspecified)		inactive

Compound	activity change, negative = inhibition	outcome
COCCCNC(=O)c1ccc(Cn2c(SCc3cccc(C)c3)nc3cccnc32)cc1	inactive: 7.3%	
Cc1ccc(C)c(N2CCN(C(=O)c3cc(S(=O)(=O)N4CCCCCC4)cn3C)CC2)c1		inactive
COC(=O)c1ccccc1NC(=O)Cn1c(=O)n(-c2cccc(C(F)(F)F)c2)c(=O)c2c(C)c(C)sc21	inactive: -22.6%	
Cc1cccc2sc(N(CCCN(C)C)C(=O)COc3ccccc3)nc12	inactive: -1.32%	
Cc1cc(C)c2c(n1)sc1c(=O)n(-c3cc(Cl)ccc3C)nnc12	inactive: 11%	
CCCn1c(CCCNC(=O)c2ccccc2OC)nc2ccccc21	inactive: 20.9%	
CCOC(=O)C1CCCN(C(=O)c2nn(-c3ccc(C)cc3)c(=O)c3c2c2ccccc2n3C)C1 (stereo unspecified)	inactive: -4.89%	
O=C(/C=C\c1ccccc1)NC1CC(=O)N(c2ccccc2)C1 (stereo unspecified)	inactive: -5.6%	
CCC(=O)N1c2ccc(S(=O)(=O)CCC(=O)Nc3ccc(Br)c(C)c3)cc2CC1C (stereo unspecified)		inactive
CCN(CC)CCCNC(=O)c1nn(-c2ccc(C)cc2)c(=O)c2c1c1ccccc1n2C		inactive
CCOc1ccc(CNS(=O)(=O)c2ccc(-c3coc(C)n3)cc2)cc1OC	inactive: -3.46%	
CCN(Cc1ccccc1)C(=O)c1sc2nc3n(c(=O)c2c1C)CCCC3	inactive: 20.7%	
CCc1ccc2c(c1)-c1ccccc1S(=O)(=O)N2CC(=O)N1CCCCC1	inactive: 0.694%	
COc1cccc(NC(=O)c2cnc(SCC(=O)N3CCOCC3)n(C)c2=O)c1	inactive: 3.99%	
Cc1ccc(Cl)cc1N1CCN(C(=O)CN2C(=O)CSc3c2c(C)nn3-c2ccccc2)CC1	inactive: 31.1%	
O=C(NCc1cccs1)c1ccc(Cn2c(SCc3ccc(F)cc3)nc3cccnc32)cc1	inactive: 4.82%	
COCCNC(=O)Cn1c(=O)n(CCCCCC(=O)Nc2ccccc2)c(=O)c2sccc21	inactive: -2.1%	
O=S(=O)(c1ccccc1)c1nnn2c1nc(NCc1ccccc1)c1sccc12	inactive: 12.2%	
COc1ccc(/C=C(\C#N)c2nc3ccccc3n2C)c(OC)c1	inactive: 13.2%	
CCOCCCN(Cc1ccco1)C(=O)c1cc2c(=O)[nH]c3ccc(C)cc3c2s1		inactive
CCN(CC)CCCNC(=O)CN1N=C(c2ccc(OC)cc2)CCC1=O	inactive: -5.75%	
COc1ccc(CNC(=O)CCCn2c(=O)c3cccn3c3cccnc32)cc1	inactive: 2.52%	
CCc1ccc(CNC(=O)c2c(C)oc3ncn(CC(C)C)c(=O)c23)cc1	inactive: -3.36%	
COc1cc(Cl)c(C)cc1NC(=O)Cn1ncc2c3ccccc3n(Cc3ccccc3)c2c1=O	inactive: 0.646%	
